In PubChem BioAssay AID624417 (National Center for Advancing Translational Sciences (NCATS), 2012):
Several values for one entry are separate records, joined by “and”; a condition that tells them apart may be missing. Equal values may be shown once. Among all 410,000 compounds or so, about 6,400 (1.6%) were called active. The shares of active, inactive and inconclusive entries below differ from those in the screen. Calls come from the whole dose curve; as a rule, active = well fitted inhibition curve with a large enough effect; inconclusive = small, poorly fitted or top-dose-only effect; inactive = no such curve, though single readings can be large or run the other way. Potencies of inconclusive entries are doubtful fits and often do not repeat.

target: Glucagon-like peptide 1 receptor (Homo sapiens) (UniProt P43220); experiment: qHTS of GLP-1 Receptor Inverse Agonists (Inhibition Mode); details: HEK293 GLP-1R CRE-luciferase, luminescence, 24 h, GLP-1R form is constitutively active; series mostly up to 38.3 µM; note: nearly all actives have a fitted effect of over 55% in size
Outline: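 Cells are plated, allowed 12 hours at 37 deg C, then treated with compounds for 24 hr before luciferase detection reagent is added and luminescence is read after 12 min at room temperature. The HEK293 line carries constitutively active GLP-1R with a cAMP-responsive reporter.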
Potency is the fitted concentration of half-maximal effect; tags give direction and shape of the fitted curve.

UniProt P43220, sequence (P43220 whole entry, looked up): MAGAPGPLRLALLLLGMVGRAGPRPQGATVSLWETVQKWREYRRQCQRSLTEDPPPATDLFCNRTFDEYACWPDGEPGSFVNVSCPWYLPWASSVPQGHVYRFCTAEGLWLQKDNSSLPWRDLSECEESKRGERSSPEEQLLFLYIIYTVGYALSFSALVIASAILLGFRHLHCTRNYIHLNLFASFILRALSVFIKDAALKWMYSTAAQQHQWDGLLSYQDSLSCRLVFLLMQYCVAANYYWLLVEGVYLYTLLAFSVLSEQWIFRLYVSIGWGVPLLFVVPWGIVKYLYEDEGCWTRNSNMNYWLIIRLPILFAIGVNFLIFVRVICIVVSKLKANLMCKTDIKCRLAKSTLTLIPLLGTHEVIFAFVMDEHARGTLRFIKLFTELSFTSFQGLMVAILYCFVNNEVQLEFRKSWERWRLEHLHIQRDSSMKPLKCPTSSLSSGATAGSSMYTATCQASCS

With `COc1ccc(S(=O)(=O)N2CCCC(C(=O)Nc3ccc(OC)c(OC)c3)C2)cc1` (centres undefined) as the molecule, how does the Potency read?
Its Potency is inconclusive: 5.62 µM [inhibitor, full curve].

With `Cc1ccccc1Nc1c(-c2cccnc2)nc2ccc(Br)cn12` as the molecule, how does the Potency read?
Its Potency is inconclusive: 11.2 µM [inhibitor, partial curve].

For `Nc1sc2c(c1C(=O)c1ccccc1)CCCC2`, which Potency is on record?
Its Potency is “inactive”.

For `CCN1C(=O)[C@H]2[C@@H](c3ccc(-c4ccc(Cl)c(Cl)c4)c(OC)c3)N[C@@](C)(C(=O)OC)[C@H]2C1=O`, which Potency is on record?
Its Potency is inconclusive: 10 µM [inhibitor, single point].

Which Potency does the source give for `CCN1CCN(CCOc2ccc(Br)cc2C)CC1` here?
Its Potency is inconclusive: 11.2 µM [inhibitor, partial curve].

Which Potency does the source give for `O=C(CCN1C(=O)/C(=C/c2ccccc2)SC1=S)N[C@@H](CO)Cc1ccccc1` here?
Its Potency is inconclusive: 8.91 µM [inhibitor, partial curve, poor fit].

How did the Potency turn out when `COc1ccc([N+](=O)[O-])cc1NC(=O)CSCc1ccccc1C` was run?
Its Potency is inconclusive: 28.2 µM [inhibitor, single point].

With `CCN(CC)CCNC(=O)c1sc2nc3n(c(=O)c2c1C)CCCCC3` as the molecule, how does the Potency read?
Its Potency is inconclusive: 3.55 µM [inhibitor, single point].

With `COc1cc(SC)ccc1C(=O)NCCOc1ccc(Cl)cc1` as the molecule, how does the Potency read?
Its Potency is inconclusive: 28.2 µM [inhibitor, single point].

For `COc1ccc(C(=O)Nc2cc(-c3cccc(C)c3)nn2-c2ccccc2)cc1`, which Potency is on record?
Its Potency is inconclusive: 11.2 µM [inhibitor, partial curve, poor fit].

With `Oc1ccc(-c2nc3ccccc3nc2-c2ccccc2)cc1` as the molecule, how does the Potency read?
Its Potency is active: 3.98 µM.

How did the Potency turn out when `Cc1ccc(-c2cn3c(n2)sc2cc(C(=O)NCCCN4CCCCC4)ccc23)cc1` was run?
Its Potency is inconclusive: 12.6 µM [inhibitor, single point].

`Cc1cc(N)ccc1-c1cc2ccccc2oc1=O` was tested. Which Potency did it give?
The Potency was inconclusive: 5.62 µM [inhibitor, single point].

`CCOc1ccc(S(=O)(=O)N(C)c2ccc(OCC(=O)Nc3nc4ccccc4s3)cc2)cc1` was tested. Which Potency did it give?
Its Potency is inconclusive: 8.91 µM [inhibitor, partial curve, poor fit].

Which Potency does the source give for `CCn1nnnc1SCC(=O)N1c2ccccc2Sc2ccccc21` here?
The Potency was inconclusive: 28.2 µM [inhibitor, single point].

How did the Potency turn out when `Cc1oc(C(C)(C)C)cc1C(=O)NCc1ccc2c(c1)OCO2` was run?
The Potency was inconclusive: 14.1 µM [inhibitor, partial curve, poor fit].

Which Potency does the source give for `OCCN(Cc1ccccc1)Cc1cccc(Cl)c1Cl` here?
Its Potency is inconclusive: 3.55 µM [inhibitor, partial curve, poor fit].

For `COc1ccc(C2=NO[C@@H]3C(=O)N(c4ccc(C)cc4C)C(=O)[C@H]23)cc1OC`, which Potency is on record?
Its Potency is “inactive”.

With `Cc1ccc(C(c2cc(Br)ccc2O)N2CCSCC2)cc1` (centres undefined) as the molecule, how does the Potency read?
The Potency was inconclusive: 10 µM [inhibitor, partial curve, poor fit].

Which Potency does the source give for `O=C(NC(=S)Nc1ccc(Cl)cn1)c1cccs1` here?
Its Potency is inconclusive: 3.55 µM [inhibitor, full curve, poor fit].

`COc1ccccc1NC(=O)N(C)C[C@@H]1OCc2ccccc2-c2c(n(C)c3ccccc23)C(=O)N([C@H](C)CO)C[C@@H]1C` was tested. Which Potency did it give?
Its Potency is inconclusive: 12.6 µM [inhibitor, single point].

How did the Potency turn out when `COc1cccc(C(=O)N(Cc2sccc2C)C2CCS(=O)(=O)C2)c1` (centres undefined) was run?
The Potency was “inactive”.

Which Potency does the source give for `CN(C)CCCN(C(=O)c1ccc(S(=O)(=O)N(C)Cc2ccccc2)cc1)c1nc2c(F)cccc2s1` here?
Its Potency is inconclusive: 28.2 µM [inhibitor, single point].

Which Potency does the source give for `Cc1onc(-c2c(F)cccc2Cl)c1C(=O)c1ccccc1O` here?
The Potency was inconclusive: 10 µM [inhibitor, partial curve, poor fit].

With `CN(C)c1ccc(N=Cc2cccn2C)cc1` as the molecule, how does the Potency read?
Its Potency is inconclusive: 2.24 µM [inhibitor, full curve, poor fit].

`O=C(CCSCc1cnn(-c2ccccc2)c1-n1cccc1)NCc1ccccc1F` was tested. Which Potency did it give?
Its Potency is inconclusive: 11.2 µM [inhibitor, single point].

With `CCOc1ccc(NC(=O)c2cc3c(-c4ccccc4F)nn(C)c3s2)cc1` as the molecule, how does the Potency read?
Its Potency is “inactive”.

With `S=c1[nH]c2ccccc2n1CCOc1ccccc1` as the molecule, how does the Potency read?
Its Potency is inconclusive: 28.2 µM [inhibitor, single point].

For `C=Cc1ccc(Cn2c(C(=O)O)c(CNCc3cccs3)c3ccc(C)cc32)cc1`, which Potency is on record?
Its Potency is inconclusive: 20 µM [inhibitor, single point].

`COc1ccccc1C(=O)Nc1c(C(=O)N(CCN(C)C)Cc2ccco2)oc2ccccc12` was tested. Which Potency did it give?
Its Potency is inconclusive: 28.2 µM [inhibitor, single point] and inconclusive: 11.2 µM [inhibitor, partial curve, poor fit].

`O=C(ONC1=NCCCCC1)c1ccc(Cl)cc1` was tested. Which Potency did it give?
The Potency was inconclusive: 14.1 µM [inhibitor, partial curve, poor fit].

`Cc1ccccc1NC(=O)c1ccc2nc(Cc3ccccc3)oc2c1` was tested. Which Potency did it give?
Its Potency is inconclusive: 25.1 µM [inhibitor, single point].

`COc1ccnc(CSC(N)=Nc2cccc(C(F)(F)F)c2)c1` was tested. Which Potency did it give?
The Potency was active: 11.2 µM.

Which Potency does the source give for `CC(=O)c1ccc(NS(=O)(=O)c2cc(-c3cnc(C4CC4)o3)ccc2C)cc1` here?
The Potency was inconclusive: 2 µM [inhibitor, full curve, poor fit].

How did the Potency turn out when `Cc1ccc(CN2C(=O)c3ccccc3C2c2nnnn2-c2ccc3c(c2)OCCO3)cc1` (centres undefined) was run?
Its Potency is inconclusive: 10 µM [inhibitor, single point].

`CC(C(=O)N1CCc2ccccc21)N1CCc2ccccc2C1` (centres undefined) was tested. Which Potency did it give?
Its Potency is “inactive”.

How did the Potency turn out when `CCc1ccc(Nc2n[n+](-c3ccccc3)c(-c3cccc(Cl)c3Cl)s2)cc1` was run?
Its Potency is inconclusive: 28.2 µM [inhibitor, single point].

With `Cc1ccc(NC(=O)CN(C)C(=O)c2cc3c(s2)CCCCC3)cc1` as the molecule, how does the Potency read?
The Potency was inconclusive: 14.1 µM [inhibitor, single point].

`c1ccc(Oc2nnc(-c3cccs3)c3ccccc23)cc1` was tested. Which Potency did it give?
Its Potency is inconclusive: 28.2 µM [inhibitor, single point].

`O=C(O)C1C2C=CC(C2)C1C(=O)NCc1ccoc1` (centres undefined) was tested. Which Potency did it give?
The Potency was inconclusive: 28.2 µM [inhibitor, single point].

With `COC(=O)c1ccc(COC(=O)c2ccc(SC)cc2OC)cc1` as the molecule, how does the Potency read?
The Potency was “inactive”.

Which Potency does the source give for `Cc1nc(NC(=O)CC(C)C)sc1-c1csc(Nc2ccc(Cl)cc2)n1` here?
Its Potency is inconclusive: 10 µM [inhibitor, partial curve].

`O=C(/C=C/c1ccc(S(=O)(=O)N2CCOCC2)cc1)NCCc1ccc(C(F)(F)F)cc1` was tested. Which Potency did it give?
The Potency was inconclusive: 8.91 µM [inhibitor, partial curve].

With `CCN1CCN(c2ccc(NC(=O)COc3ccccc3Cl)cc2)CC1` as the molecule, how does the Potency read?
The Potency was inconclusive: 4.47 µM [inhibitor, partial curve, poor fit].

With `O=C1C2CC=CCC2C(=O)N1c1ccc(N2CCN(c3ccccn3)CC2)c([N+](=O)[O-])c1` (centres undefined) as the molecule, how does the Potency read?
Its Potency is inconclusive: 1.12 µM [inhibitor, full curve].

How did the Potency turn out when `Cc1sc(-n2cccc2)c(C(=O)O)c1C` was run?
Its Potency is inconclusive: 10 µM [inhibitor, single point].

Which Potency does the source give for `CN(Cc1cnccn1)Cc1ccccc1OCC(O)CN1CCc2ccccc2C1` (centres undefined) here?
Its Potency is inconclusive: 12.6 µM [inhibitor, single point].

Which Potency does the source give for `CC(C)C[C@@H](CSc1ccc(Br)cc1)N1CCN(CC(C)C)CCC1=O` here?
The Potency was inconclusive: 20 µM [inhibitor, single point].

With `Cc1ccc(N=C/C(C(=O)C(F)(F)F)=C(\O)c2ccco2)cc1Cl` as the molecule, how does the Potency read?
Its Potency is inconclusive: 28.2 µM [inhibitor, single point].

`COC(=O)c1n[nH]c2ccccc12` was tested. Which Potency did it give?
Its Potency is “inactive”.

With `CC12CCC(=O)N1C(C(=O)Nc1ccc(S(=O)(=O)N3CCCCC3)cc1)CS2` (centres undefined) as the molecule, how does the Potency read?
The Potency was “inactive”.

`CCCCCOc1ccc(Cn2ccnc2)cc1[N+](=O)[O-]` was tested. Which Potency did it give?
The Potency was inconclusive: 7.08 µM [inhibitor, partial curve, poor fit].

`COC(=O)C1=CNC=C(C(=O)OC)C1c1ccc(C(=O)OC)cc1` was tested. Which Potency did it give?
The Potency was “inactive”.

Which Potency does the source give for `COc1ccc2c(c1)CC(NC(=O)Nc1cc(Cl)ccc1OC)CO2` (centres undefined) here?
The Potency was inconclusive: 28.2 µM [inhibitor, single point].

Which Potency does the source give for `O=C(c1cc(-c2ccc(O)cc2)on1)N1CCc2ccccc2C1` here?
Its Potency is inconclusive: 20 µM [inhibitor, single point].

For `COc1cccc(C(=O)Nc2ccc(Cl)c(-c3nc4ccccc4[nH]3)c2)c1`, which Potency is on record?
Its Potency is inconclusive: 3.98 µM [inhibitor, partial curve, poor fit].

`CSc1nc(C)cc(Nc2c(C)cc(C)cc2C)n1` was tested. Which Potency did it give?
Its Potency is inconclusive: 14.1 µM [inhibitor, single point].

How did the Potency turn out when `O=C(NCCn1cc(SCc2ccc(F)cc2)c2ccccc21)c1c(F)cccc1F` was run?
Its Potency is inconclusive: 2.51 µM [inhibitor, full curve, poor fit].

For `Cc1ccc(C2c3c(-c4ccccc4O)n[nH]c3C(=O)N2CCCO)cc1` (centres undefined), which Potency is on record?
The Potency was “inactive”.

`Cn1nnnc1SCCNCc1ccccc1OCc1ccccc1F` was tested. Which Potency did it give?
Its Potency is inconclusive: 11.2 µM [inhibitor, partial curve, poor fit].

Which Potency does the source give for `Cc1cc(C(=O)NCCc2ccc(Cl)cc2)c(C)o1` here?
The Potency was inconclusive: 28.2 µM [inhibitor, single point].

With `COc1ccc(-c2cc(C(F)(F)F)nc(-n3cc(Br)cn3)n2)cc1` as the molecule, how does the Potency read?
The Potency was inconclusive: 2.82 µM [inhibitor, full curve, poor fit].

`Cc1ccc(Cn2c(C(=O)Nc3cccc(Cl)c3)cc3sccc32)cc1` was tested. Which Potency did it give?
Its Potency is inconclusive: 20 µM [inhibitor, single point].

Which Potency does the source give for `CC1CCN(S(=O)(=O)c2cccc(C(=O)NCc3cccs3)c2)CC1` here?
Its Potency is “inactive”.
